Laboratory results published in PubChem BioAssay AID1458 (National Center for Advancing Translational Sciences (NCATS), 2008).
The whole screen tested about 210,000 compounds, of which about 5,900 (2.8%) were called active. Inconclusive results, whose numbers are uncertain, are shown with a selection of clear calls. The call rests on the fitted dose curve; in most records, active means well fitted activation curve with a large enough effect; inconclusive means small, poorly fitted or top-dose-only effect; inactive means no such curve, though single readings can be large or run the other way. A potency beside an inconclusive call is a rough fit, not a confirmed value.

assay: qHTS Assay for Enhancers of SMN2 Splice Variant Expression; settings: HEK293 SMN2-luciferase splicing reporter, luminescence, 30-36 h; activity change, positive = activation: at 46.1 µM (top of the series); further: nearly all actives have a fitted effect of over 55% in size; on activity change, positive = activation: % of control where 0% means no effect
In short: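 HEK293 cells carry an SMN2 minigene-luciferase reporter in which exon 7 inclusion puts luciferase in frame. Cells were seeded at 2000 cells/well, attached for 10-12 hours, then exposed to compounds for 30-36 hours at 37C before ONE-Glo luminescence.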
Potency means the concentration at half of the fitted maximal effect; tags describe the fitted curve by direction and shape.

| SMILES | Potency | activity change, positive = activation |
| --- | --- | --- |
| COc1ccc(-c2noc(CN3CCOCC3)n2)cc1OC | inconclusive: 8.91 µM [activator, partial curve, poor fit] |  |
| CCC(=O)c1ccc(OCc2ccc(C(=O)OC)cc2)c(OC)c1 | inconclusive: 15.8 µM [activator, single point] |  |
| Nn1c(-c2cccs2)nc2sc3c(c2c1=O)CCCC3 | active: 6.31 µM |  |
| Cc1ccccc1NC(=O)CSC1=C(C#N)C(c2ccsc2)CC(=O)N1 (stereo not given) | inconclusive: 10 µM [activator, partial curve] |  |
| C/C(=N\NC(=O)c1ccn(C)n1)c1cccc(NC(=O)c2ccc(C)s2)c1 | inconclusive: 35.5 µM [activator, single point] |  |
| CCOc1ccccc1C1C(C(=O)Nc2ccccc2OC)=C(C)Nc2nnnn21 (stereo not given) | inconclusive: 0.0398 µM [activator, full curve] |  |
| CC1CN(C(=O)Nc2ccc(C(=O)NCc3ccccc3F)cc2)c2ccccc2S1 (stereo not given) | inconclusive: 35.5 µM [activator, single point] |  |
| CCCSc1nnc(Nc2ccccc2C)s1 | inconclusive: 7.08 µM [activator, partial curve] |  |
| C(=N\N1CCN(c2ccccc2)CC1)/c1ccccc1 | inconclusive: 35.5 µM [activator, single point] |  |
| CN(C)c1cccc(C(=O)NCc2ccccc2Cl)c1 | inconclusive: 14.1 µM [activator, partial curve] |  |
| O=C(/C=C/c1ccc[nH]1)c1ccc(F)cc1 | inconclusive: 35.5 µM [activator, single point] |  |
| O=C(Nc1ccccc1C(F)(F)F)c1cc(-c2ccccc2O)on1 | inconclusive: 11.2 µM [activator, partial curve] |  |
| CC(=O)c1ccc(NC(=O)Nc2ccc3snnc3c2)cc1 | inconclusive: 11.2 µM [activator, partial curve] |  |
| COc1cccc(-c2nc(S(=O)(=O)c3ccc(C)cc3)c(N3CCCCCC3)o2)c1 | inconclusive: 5.62 µM [activator, single point] |  |
| COc1ccccc1-c1cncnc1NCCc1cnc[nH]1 |  | inactive: -8.28% |
| CC1CCC/C(=N\Nc2ccc(Cl)c(C(=O)O)c2)C1 (stereo not given) | inconclusive: 31.6 µM [activator, single point] |  |
| CC(C)OCC1CO1 (stereo not given) |  | inactive: -6.68% |
| CS(=O)(=O)N1CCN(c2ccccc2NC(=O)c2cccc3ccccc23)CC1 | inconclusive: 6.31 µM [activator, partial curve, poor fit] |  |
| N#CC(Cc1ccc(O)c(O)c1)C(=O)N1CCc2ccccc21 (stereo not given) | inconclusive: 11.2 µM [activator, full curve, poor fit] |  |
| Cc1cc2ncn(C(=O)c3cc(-c4ccccc4)nc4ccccc34)c2cc1C |  | inactive: -0.0726% |
| CCOC(=O)C1CCN(c2ncnc3c2oc2ccc(Br)cc23)CC1 | inconclusive: 22.4 µM [activator, single point] |  |
| O=C(CSc1ccccc1)Nc1cccc(S(=O)(=O)N2CCCC2)c1 |  | inactive: 10.4% |
| Oc1ccc(C=NCC2COc3ccccc3O2)cc1 (stereo not given) | inconclusive: 35.5 µM [activator, single point] |  |
| C/C(=N\OCc1ccc(C#N)cc1)c1ccccc1 | active: 15.8 µM |  |
| O/N=C1/CCc2nonc2/C1=N/O | inconclusive: 31.6 µM [activator, single point] |  |

| SMILES | Potency | activity change, positive = activation |
| --- | --- | --- |
| O=C(NCCCn1ccnc1)/C(=C\c1cccs1)NC(=O)c1ccco1 | inconclusive: 0.126 µM [activator, full curve, poor fit] |  |
| C#CCn1c(S(=O)(=O)Cc2ccccc2Cl)nc(-c2ccccc2)c1-c1ccccc1 | active: 5.62 µM |  |
| COCCCNCCCOc1ccc(C(C)(C)c2ccccc2)cc1 | inconclusive: 35.5 µM [activator, single point] |  |
| O=C(NCCC1=CCCCC1)c1cc(-c2ccccn2)nc2ccccc12 |  | inactive: -11.1% |
| O=C(NC1CCCCCC1)c1ccc2c(=O)n3c(nc2c1)CCCCC3 | active: 12.6 µM |  |
| O=C(NCC1CCCO1)c1ccc(COc2ccccc2Br)cc1 (stereo not given) |  | inactive: -10.3% |
| COc1ccc2c(c1)[nH]c1c(=O)n(CCC3=CCCCC3)cnc12 |  | inactive: 22.1% |
| CN(C)c1ccc(C(=S)N2CCNCC2)cc1 | inconclusive: 0.0708 µM [activator, full curve, poor fit] |  |
| N/C(CN1CCCC1=O)=N\OC(=O)c1ccc(Cl)cc1 | inconclusive: 35.5 µM [activator, single point] |  |
| Cc1cc(C(=O)Nc2sc3c(c2C#N)CCC(C)C3)no1 (stereo not given) | active: 14.1 µM |  |
| C=CCN=C(NC#N)SCC(=O)NC(C)(C)C | inconclusive: 11.2 µM [activator, partial curve] |  |
| Cn1nnc(-c2ccc(OCc3ccccc3F)cc2)n1 | active: 8.91 µM |  |
| COc1ccc(C(=O)N2CCC3(CCN(Cc4ccccc4OC)CC3)CC2)cc1 |  | inactive: -15.8% |
| C/C(=N\NC(=O)c1ccccn1)c1ccc(C(=O)O)s1 |  | inactive: 2.53% |
| O=C(NCc1cccnc1)C(=O)Nc1ccc2c(c1)OCO2 |  | inactive: 25.7% |
| COc1ccc(C2CC(c3ccccc3)=NN2C(=O)c2ccc(Cl)c([N+](=O)[O-])c2)cc1 (stereo not given) | inconclusive: 35.5 µM [activator, single point] |  |
| c1ccc(-c2ccc(OCCOCCn3cncn3)cc2)cc1 | inconclusive: 35.5 µM [activator, single point] |  |
| COc1ccc(C(=O)Nc2ccc(N3CCCCC3)cc2)cc1Br | inconclusive: 17.8 µM [activator, single point] |  |
| CCN(CC)S(=O)(=O)c1ccc(Cl)c(C(=O)Oc2cccc(-c3cnc4ccccc4n3)c2)c1 | inconclusive: 31.6 µM [activator, single point] |  |
| C/C(=N\Nc1cc(N2CCOCC2)nc(C)n1)c1cccc([N+](=O)[O-])c1 |  | inactive: -40.6% |
| Cc1ccc(NC(=O)c2cnc3sc(N4CCOCC4)nn3c2=O)cc1N(C)C |  | inactive: -10.8% |
| Fc1ccc(CN2CCCCCCC2)c(F)c1 | inconclusive: 0.0071 µM [activator, full curve, poor fit] |  |
| COc1nc(OC)nc(N2CCC(C(=O)NCc3ccco3)CC2)n1 |  | inactive: 6.36% |
| Cc1ccc(-c2cn3ccc(C)cc3n2)cc1 | active: 0.251 µM |  |
| CC(C)CCn1c(/C=C/c2ccccc2)nc2ccccc21 | inconclusive: 25.1 µM [activator, single point] |  |

| SMILES | Potency | activity change, positive = activation |
| --- | --- | --- |
| COc1ccc(S(=O)(=O)NC(C)C(=O)Nc2cccc(C(C)=O)c2)cc1 (stereo not given) | inconclusive: 1.41 µM [activator, full curve, poor fit] |  |
| COc1cccc2sc(N(C)c3ccccc3)nc12 | active: 8.91 µM |  |
| Cc1cc(-c2ccc([N+](=O)[O-])cc2)nc2ccccc12 | inconclusive: 35.5 µM [activator, single point] |  |
| c1ccc(-c2nc(-c3ccncc3)no2)cc1 | inconclusive: 35.5 µM [activator, single point] |  |
| C=C(C(C)=O)C(O)c1ccc2ccccc2c1 (stereo not given) |  | inactive: 1.4% |
| COc1ccc(-c2cc(C(F)(F)F)c3c(n2)sc2c(O)cc(=O)[nH]c23)c(OC)c1 | inconclusive: 5.62 µM [activator, single point] |  |
| Cc1ccc(C(=O)NC(=S)Nc2ccc(NC(=O)c3cccs3)cc2)cc1[N+](=O)[O-] |  | inactive: 4.11% [at 1.84 µM] |
| COC1=C(Nc2ccc(OC)cc2)C(=O)c2ccccc2C1=O | inconclusive: 5.62 µM [activator, partial curve] |  |
| O=C(Nc1ccccc1)Nc1nccs1 |  | inconclusive: 31.6% [activator] |
| CCCn1c(NCc2cccc(OC)c2OC)nc2ccccc21 | inconclusive: 35.5 µM [activator, single point] |  |
| Cc1c(Cl)cccc1NC(=O)NC1CCCCC1 | inconclusive: 35.5 µM [activator, single point] |  |
| CS(=O)(=O)N1CCC(C(=O)Nc2ccccc2F)CC1 | inconclusive: 1 µM [activator, partial curve, poor fit] |  |
| CCc1nnc(NC(=O)c2ccc3c(c2)C(=O)N(C(C)(C)C)C3=O)s1 | inconclusive: 10 µM [activator, partial curve, poor fit] |  |
| CCc1nn(CC(=O)Nc2cccc(C(C)=O)c2)c(=O)c2cc3sccc3n12 |  | inactive: -8.91% |
| CCCc1nnc2n1N=C(c1ccc(OC)c(OC)c1)CS2 | inconclusive: 10 µM [activator, partial curve] |  |
| Cc1ccc(Cl)cc1NC(=O)C1CCCN(c2cnccn2)C1 (stereo not given) |  | inactive: 1.66% |
| O=C(Nc1cccnc1)c1ccc(Cl)c(S(=O)(=O)N2CCCCCC2)c1 |  | inactive: -53.8% |
| C(=N\Nc1nc2ccccc2[nH]1)/c1c[nH]c2ccccc12 | inconclusive: 35.5 µM [activator, single point] |  |
| Cc1ccc(C(=O)Nc2ccc3cn[nH]c3c2)cc1S(=O)(=O)N1CCOCC1 | inconclusive: 14.1 µM [activator, single point] |  |
| COc1ccc(-n2c(C)cc(C3=NNC(=NC4CC4)SC3)c2C)cc1 | active: 3.98 µM |  |
| O=C(CCn1nnc(-c2cccs2)n1)NCc1ccccc1Cl |  | inactive: 28.3% |
| COc1ccccc1CSc1nc2ccccc2[nH]1 | inconclusive: 35.5 µM [activator, single point] |  |
| COc1ccc(C(=O)NNC(=O)CSc2nnc(COc3ccccc3OC)n2C)cc1 | inconclusive: 2.51 µM [activator, partial curve, poor fit] |  |
| CC(=O)Nc1ccc(N2C(=O)CSC2c2cccc([N+](=O)[O-])c2)cc1 (stereo not given) |  | inactive: 11.9% |
| Cc1ccc(C(=O)Oc2ccc(-c3nccc(-c4ccccn4)n3)cc2)cc1 | inconclusive: 22.4 µM [activator, single point] |  |
